Test results as given in PMC4336329 (PLoS ONE, 2015).
Screen size: about 310,000 compounds; about 2,200 (0.71%) showed an effect of 50% or more. Effects have a minus sign here. Some of the results follow.

These compounds were tested against human ether-à-go-go-related gene (hERG) potassium channel (human, UniProt Q12809) (assay: primary screen, population patch clamp on CHO cells stably expressing hERG).
Chain of human ether-à-go-go-related gene (hERG) potassium channel (Q12809 whole entry, looked up): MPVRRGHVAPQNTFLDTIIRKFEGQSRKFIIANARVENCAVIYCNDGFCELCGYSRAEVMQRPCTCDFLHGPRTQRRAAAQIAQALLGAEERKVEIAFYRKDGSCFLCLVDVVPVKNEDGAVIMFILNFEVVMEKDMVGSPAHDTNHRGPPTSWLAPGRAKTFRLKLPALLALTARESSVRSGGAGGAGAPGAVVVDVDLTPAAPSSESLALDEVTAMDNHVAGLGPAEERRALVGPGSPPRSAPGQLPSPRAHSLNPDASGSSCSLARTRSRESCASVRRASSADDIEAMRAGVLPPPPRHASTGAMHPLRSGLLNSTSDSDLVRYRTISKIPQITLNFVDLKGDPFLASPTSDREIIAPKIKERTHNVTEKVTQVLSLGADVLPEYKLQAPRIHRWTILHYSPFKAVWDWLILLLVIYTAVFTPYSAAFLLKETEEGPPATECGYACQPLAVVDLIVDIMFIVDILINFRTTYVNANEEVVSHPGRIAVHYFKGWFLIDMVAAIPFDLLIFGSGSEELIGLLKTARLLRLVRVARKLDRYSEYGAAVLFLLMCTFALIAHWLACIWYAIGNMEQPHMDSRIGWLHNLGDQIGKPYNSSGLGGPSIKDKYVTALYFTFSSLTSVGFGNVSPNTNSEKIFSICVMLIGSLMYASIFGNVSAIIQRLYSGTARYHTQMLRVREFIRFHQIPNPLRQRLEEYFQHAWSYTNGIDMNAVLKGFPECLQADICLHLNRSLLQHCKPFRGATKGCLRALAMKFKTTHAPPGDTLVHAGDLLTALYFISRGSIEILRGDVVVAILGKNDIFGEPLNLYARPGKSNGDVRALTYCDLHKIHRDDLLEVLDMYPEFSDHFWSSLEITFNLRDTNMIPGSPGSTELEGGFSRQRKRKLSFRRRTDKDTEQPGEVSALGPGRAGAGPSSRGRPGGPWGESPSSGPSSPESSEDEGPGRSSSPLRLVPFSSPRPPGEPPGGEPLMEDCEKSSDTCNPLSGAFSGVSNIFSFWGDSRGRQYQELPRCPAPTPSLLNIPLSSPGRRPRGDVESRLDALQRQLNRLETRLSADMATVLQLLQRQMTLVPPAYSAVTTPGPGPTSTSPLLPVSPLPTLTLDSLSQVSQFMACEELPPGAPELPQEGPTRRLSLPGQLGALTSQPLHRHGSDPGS
With `O=C(Nc1ccc2c(c1)OCO2)C1CCCN1C(=O)OCc1ccccc1` (stereo not shown) the “hERG current change (%, negative = inhibition) at 1uM” value was 5.86%. With `Cc1cc(S(=O)(=O)n2cnc3cc([N+](=O)[O-])ccc32)ccc1Cl` the “hERG current change (%, negative = inhibition) at 1uM” value was 4.33%. `Cc1ccc(S(=O)(=O)N(CC(=O)N2CCN(c3ccc(F)cc3)CC2)C2CCCCC2)cc1` was tested, and the “hERG current change (%, negative = inhibition) at 1uM” value was -9.32%. `CCOc1ccc(-c2nnc(-c3ccco3)o2)cc1OCC` was tested, and the “hERG current change (%, negative = inhibition) at 1uM” value was 3.42%. For `O=C(NC1CCCCC1)C(c1ccncc1)N(C(=O)c1csnn1)c1ccc(F)cc1` (stereo not shown), the “hERG current change (%, negative = inhibition) at 1uM” value was 19.8%. `CC(NC(=O)c1cc(-c2ccc(Br)cc2)on1)c1ccccc1` (stereo not shown) was tested, and the “hERG current change (%, negative = inhibition) at 1uM” value was -2.12%. For `O=C(COC(=O)C1=COCCO1)Nc1ccccc1OC(F)F`, the “hERG current change (%, negative = inhibition) at 1uM” value was 9.37%. With `C#C[C@@]1(O)CCC2C3CCC4=C/C(=N/OCC(=O)NC(C(=O)O)C(C)O)CC[C@]4(C)C3CC[C@@]21C` (stereo partly shown) the “hERG current change (%, negative = inhibition) at 1uM” value was 5.8%. For `CC(Oc1ccc(Cl)cc1)C(=O)Nc1cccc(S(=O)(=O)N2CCOCC2)c1` (stereo not shown), the “hERG current change (%, negative = inhibition) at 1uM” value was 3.87%. `CCN(CC)S(=O)(=O)c1cc(C(=O)OCC(=O)c2ccc3c(c2)NC(=O)CO3)ccc1F` was tested, and the “hERG current change (%, negative = inhibition) at 1uM” value was 6.35%. For `CC(Oc1ccccc1)C(=O)N1CCN=C1SCc1ccccc1` (stereo not shown), the “hERG current change (%, negative = inhibition) at 1uM” value was 1.83%. `O=C(c1ccc(Cl)cc1)C1CCN(C(=O)N2CCOCC2)CC1` was tested, and the “hERG current change (%, negative = inhibition) at 1uM” value was 1.22%. In the case of `CCOC(=O)c1ccccc1NS(=O)(=O)c1ccc(C)cc1`, the “hERG current change (%, negative = inhibition) at 1uM” value was 14.3%. `CCCCOC(=O)C(C)c1c(C)[nH]c(=S)[nH]c1=O` (stereo not shown) was tested, and the “hERG current change (%, negative = inhibition) at 1uM” value was 16.7%. For `Cc1cccc(NC(=S)NCC(C)CSc2ccc(Cl)cc2)c1` (stereo not shown), the “hERG current change (%, negative = inhibition) at 1uM” value was 23.9%. For `Cc1cccc(NC(=O)NCCN2CCN(c3ccccc3)CC2)c1C`, the “hERG current change (%, negative = inhibition) at 1uM” value was 9.29%. With `CCn1c(COc2ccc(C)cc2)nc2ccccc21` the “hERG current change (%, negative = inhibition) at 1uM” value was 4.9%. With `CC(C)(C)C(=O)O/N=C(\N)c1ccc(Oc2cc(Cl)cc(Cl)c2)c([N+](=O)[O-])c1` the “hERG current change (%, negative = inhibition) at 1uM” value was 11.2%. For `Cc1ccc(S(=O)(=O)N2CCC(C(=O)NCC3CCCCC3)CC2)cc1`, the “hERG current change (%, negative = inhibition) at 1uM” value was 9.39%. `COc1ccc(-n2ccc(=O)c(C(=O)Nc3ccc(S(=O)(=O)Nc4nccs4)cc3)n2)cc1` was tested, and the “hERG current change (%, negative = inhibition) at 1uM” value was 4.7%. In the case of `O=[N+]([O-])c1ccc2ccn(C3OCC(O)C(O)C3O)c2c1` (stereo not shown), the “hERG current change (%, negative = inhibition) at 1uM” value was 11.7%. For `Cc1ccccc1C(=O)N1CCN(c2ccc(NC(=O)c3cccnc3)cc2)CC1`, the “hERG current change (%, negative = inhibition) at 1uM” value was 2.32%. `CCOC(=O)O[C@]1(C(=O)OCCl)CC[C@H]2[C@@H]3CCC4=CC(=O)C=C[C@]4(C)[C@H]3[C@@H](O)C[C@@]21C` was tested, and the “hERG current change (%, negative = inhibition) at 1uM” value was 10.9%. `O=C(COc1ccc(Cl)cc1[N+](=O)[O-])N1CCCCCC1` was tested, and the “hERG current change (%, negative = inhibition) at 1uM” value was 12.5%. With `COc1ccc(CN2CCN(C(C)C(=O)N3CCc4ccccc43)CC2)cc1OC` (stereo not shown) the “hERG current change (%, negative = inhibition) at 1uM” value was -52.3%. `COc1ccccc1NC(=O)CCc1nnc2ccc(N3CCN(C)CC3)nn12` was tested, and the “hERG current change (%, negative = inhibition) at 1uM” value was 16.1%. For `c1ccc(N=Nc2ccc3cccccc2-3)cc1`, the “hERG current change (%, negative = inhibition) at 1uM” value was 12%. `CSc1nsc(SCC(=O)N2CCN(c3ccccc3)CC2)n1` was tested, and the “hERG current change (%, negative = inhibition) at 1uM” value was 6.28%. With `CN(C)C(=O)c1ccc(Nc2nnc(-c3ccc(O)cc3)c3ccccc23)cc1` the “hERG current change (%, negative = inhibition) at 1uM” value was 3.02%. `CCN(CC)c1nc2cc(C)ccc2cc1/C=C(\C#N)C(N)=O` was tested, and the “hERG current change (%, negative = inhibition) at 1uM” value was 1.71%. For `CSc1ccccc1NC(=O)COc1ccc(S(=O)(=O)N2CCCC2)cc1`, the “hERG current change (%, negative = inhibition) at 1uM” value was 3.75%. With `CCOc1ccc(CN(C)CC(=O)NCc2ccccc2Cl)cc1` the “hERG current change (%, negative = inhibition) at 1uM” value was -73.6%. For `CCN(CC(=O)Nc1ccc(C(=O)Nc2ccc(OC)cc2)cc1)Cc1nc2ccccc2c(=O)[nH]1`, the “hERG current change (%, negative = inhibition) at 1uM” value was 16.9%. `O=C(NCc1cnc2ccccn12)C1CCC(=O)N(Cc2cccc(F)c2)C1` (stereo not shown) was tested, and the “hERG current change (%, negative = inhibition) at 1uM” value was 18%. `CC(C)CC(=O)N1CCN(Cc2ccccc2[N+](=O)[O-])CC1.O=C(O)C(=O)O` was tested, and the “hERG current change (%, negative = inhibition) at 1uM” value was 17.5%. For `COc1cccc(CNC(=O)c2cc(COc3c(F)cccc3F)on2)c1`, the “hERG current change (%, negative = inhibition) at 1uM” value was 10.4%. With `CCOc1cc(/C=C2/C(=O)ON=C2C)ccc1OCc1ccc(F)cc1` the “hERG current change (%, negative = inhibition) at 1uM” value was 18.2%. For `Cc1[nH]nc2ncc(C(=O)c3cc(Cl)cc(Cl)c3O)cc12`, the “hERG current change (%, negative = inhibition) at 1uM” value was 10.1%. For `C/C(=N\N=C(N)N)c1cccc([N+](=O)[O-])c1`, the “hERG current change (%, negative = inhibition) at 1uM” value was 5.97%. For `O=C(NCCC1=CCCCC1)c1c(O)nc2ccccn2c1=O`, the “hERG current change (%, negative = inhibition) at 1uM” value was 18.8%. With `CCOc1ccc(C2=C(C=Nc3c(C)n(C)n(-c4ccccc4)c3=O)C(c3ccc(F)cc3)c3ccccc3O2)cc1` (stereo not shown) the “hERG current change (%, negative = inhibition) at 1uM” value was 7.07%. With `CCCCn1c(N)c(N(CCOC)C(=O)c2ccc(-c3ccccc3)cc2)c(=O)[nH]c1=O` the “hERG current change (%, negative = inhibition) at 1uM” value was 14.3%. `CCOC(=O)C1CCN(C(=O)C(CCSC)NC(=O)c2ccccc2OC)CC1` (stereo not shown) was tested, and the “hERG current change (%, negative = inhibition) at 1uM” value was 4.72%.
